Assay results taken from publication PMC12136788.
This is one part of the list.

B1: chr1:225611761:225611762:-_ENSG00000143815_ENST00000272163|hu_mus|hu_hu_hu_mus_True|28_38 (ssRNA)
RNA: GGGAGUUCUACAGUCCGACGAUCCCAGGCCAUCGGCCUCUGACCACUUCACCCUCAACAAACUUCCUACUUGGCAUUUUCUAAAAUUAGUCUGGCCCAGGUUCCGGCGGUGACACGGCCACUCCAGGACAGUCACCAGCAGCCCAACAGAGGAUUGAGCAUCA
B2: chr1:225611761:225611762:-_ENSG00000143815_ENST00000272163|hu_mus|hu_hu_hu_mus_True|78_98 (ssRNA)
RNA: GGGAGUUCUACAGUCCGACGAUCCCAGGCCAUCGGCCUCUUACCACUUCACCCUCAGCAAAUUUCCUACUUGGCAUUUUCUAAAAUUAGUCUGGCCGCGCUCCGGCGGGAACUCCAGCCACUCCAGGACAGUCACCAGCAGCCCAACAGAGGAUUGAGCAUCA
B3: chr7:56126341:56126342:+_ENSG00000146731_ENST00000540286|hu_hu|motif|central (ssRNA)
RNA: GGGAGUUCUACAGUCCGACGAUCCAUAUUUCUCCUUUUAGCUCUGCGCAGAGCAACUAUGCCUUCUUUUGAAAGAGCAUCGGAGGAAAAGGGGUCAAUUCCCUUUUGAUUAAUAACAACAAAUCCUUUAUCUGAAUCGCCACACAACAGAGGAUUGAGCAUCA
B4: chr7:65419240:65419241:+_ENSG00000196715_ENST00000360768|hu_mus|FALSE|FALSE (ssRNA)
RNA: GGGAGUUCUACAGUCCGACGAUCGCUGGCCAUCAGUCUUCCUUAGGCUGCAGCUGUCGCUUCCAGGCCUCAUUCAAAUAAACUAGUCGUUUGUAAUUGAUGAUGAGGAGGAGGAAGUUCAGCACAUAUGUGGUGACGCAGAUGCAACAGAGGAUUGAGCAUCA
B5: 90616502_90616622_2646_CDS_ENSMUSG00000008200_ENSMUST00000013759|mouse|control|control (ssRNA)
RNA: GGGAGUUCUACAGUCCGACGAUCAGCUGACUGGCUAUAGAGAACUGGAGAACUACCAAUAGUGGCUGAUCUCUGAACUACCGAAGUACUCAUUUCUGGAGCCUUCCUCUUUACUGCUUUAUUGGAUGGAGGACUAGAGGCAGUCAACAGAGGAUUGAGCAUCA
B6: chr4:148551591:148551592:-_ENSMUSG00000063077_ENSMUST00000060537|mus_hu|mus_mus_mus_hu_False|28_28 (ssRNA)
RNA: GGGAGUUCUACAGUCCGACGAUCACCUGACAAAAUUAAAUAUCCCUGUAAAUUAGACAAUAAGCAGCAGGCAACAAAGUCUUUGCUUUGGAAUAUGUGCCAGGAAAAAUCAUGUUUUUUUUAGAUCUCAAGAGACAGUUCACACAACAGAGGAUUGAGCAUCA
B7: chr9:74984206:74984207:+_ENSMUSG00000034593_ENSMUST00000123128|mus_mus|motif|central (ssRNA)
RNA: GGGAGUUCUACAGUCCGACGAUCACCGAUGAUUCUGUACCUCUUGUCAAAACCAAUUUCAAUAUAUUUUCCAAACCGGCUGCGGUUAUCAUUCCUGGUUGUUUUGGCAUUUCCAAUUGACUCCAUGAUGGGGUUGGAGGCCAACAACAGAGGAUUGAGCAUCA
B8: 44083480_44084318_4348_CDS_ENSG00000142949_ENST00000372413|human|control|control (ssRNA)
RNA: GGGAGUUCUACAGUCCGACGAUCGUACUGAUCACAUUUUACCCGGGACUUCUCCUCCAGCCGUGUCAUCAUGACCACAGUGGCCGUGCGCUGUUCCCACACCAUCCUCCAGAAAUCACCCAUGGUCUCGGGCAGGGGGCCCUGCAACAGAGGAUUGAGCAUCA
B9: chr19:38862730:38862731:-_ENSMUSG00000024999_ENSMUST00000025963|mus_mus|FALSE|FALSE (ssRNA)
RNA: GGGAGUUCUACAGUCCGACGAUCUUUGUAAGUCAUUUCUACAAUGAUAAUAGCUAUUAUAUAAAAUAGUUCUUUAUAACUAUUUAUAAACAUAUACAGUUUUUAUCUGUAAGAAUUUAAGGUGGGCGGUGGUGGCGCACGUCUCAACAGAGGAUUGAGCAUCA
B10: chrX:98862621:98862622:+_ENSMUSG00000034160_ENSMUST00000044475|mus_hu|mus_mus_mus_hu_False|8_48 (ssRNA)
RNA: GGGAGUUCUACAGUCCGACGAUCCUGCAUCUCCUUUAGAGUGUUUCCCAUAUUAGAGUAGGCAUCAGCAAAGGUAGGACUGAUUCGUAUGGCUUCUUUAUAAUGCAUCAGAGCUUCCUGCAGUUUUCCCUGCUGUUGCAGUACCAACAGAGGAUUGAGCAUCA
B11: chr11:46405157:46405158:+_ENSG00000110492_ENST00000395566|hu_hu|hu_hu_hu_mus_False|28_78 (ssRNA)
RNA: GGGAGUUCUACAGUCCGACGAUCCCCUCCCCACUUUGGGCACUUGGUGUGGGCGUGAAGGCAGGGCCGUGAUUGACAGAGCUGACAGGAAGACAAAAGGCACUGGUGGGUCACAUCUUGGGCCUGUGGGAGAGGAGGGCUCCGCAACAGAGGAUUGAGCAUCA
B12: chr13:42874254:42874255:+_ENSG00000023516_ENST00000025301|hu_mus|FALSE|FALSE (ssRNA)
RNA: GGGAGUUCUACAGUCCGACGAUCUUCACUAGUAUCUGUUUGGCAAAACCAUUCAGCAGGAGUACAGCUUCCAGGAGGACUAAAAGCUGAGGUUCGAAUAGGGCUGAACAAGCCACUAUCCUCUGAUGUCAUCACCGGACGAGGCAACAGAGGAUUGAGCAUCA
B13: chr22:19452774:19452775:-_ENSG00000070010_ENST00000399523|hu_hu|hu_hu_hu_mus_False|1_18 (ssRNA)
RNA: GGGAGUUCUACAGUCCGACGAUCCUUCUCAUUGUAGUUGAUAGCAAUCACAUCUCCAGUCGUCAGACAGGCGAAGUUUCUCAAUGCAUUUUCUAAUACCGCUUUAGGGUUGGUAAUGUCCAGGAAGUCUGGGCUCUGAGGUUGCAACAGAGGAUUGAGCAUCA
B14: 43428950_43429070_1961_CDS_ENSG00000052841_ENST00000039989|human|control|control (ssRNA)
RNA: GGGAGUUCUACAGUCCGACGAUCGCCGUAAUGAAUCAAAAGGUUGGCCAAGUUGACAAGAGGAACAUCUUGGUAUUGAAGUGGAGCUAAAUUCAAAGCCCUCUGAAGACAGGCAAUAGCAAAAGUGCUAUUUCCUACUGCUCUCAACAGAGGAUUGAGCAUCA
B15: chr19:8913615:8913616:-_ENSMUSG00000071658_ENSMUST00000096259|mus_hu|mus_mus_mus_hu_False|38_38 (ssRNA)
RNA: GGGAGUUCUACAGUCCGACGAUCAGGGUACCAAAACCUUCUGCCUGAAAUGGGUGCCCCACCCAGUAGGGAGUUGCAGCUGAAAGUAUCUGAUGCACUGACAGUUACUAUACGAAAGGAGGCCCCUGGGGAGGGCCAGGCCAGCAACAGAGGAUUGAGCAUCA
B16: chr19:5492702:5492703:+_ENSMUSG00000056201_ENSMUST00000116560|mus_mus|FALSE|FALSE (ssRNA)
RNA: GGGAGUUCUACAGUCCGACGAUCAUAGGUUGCAUCAUAGAGUGCAUAGCGGCAGUCCUUGUCUGGCAGCAUCUUGACAAAAGUGGUGUAGGGGUCGUCCACAGUCUGCCCCACAUCUCCUACCAGGAUCUCCUUGCCCUCCUCCAACAGAGGAUUGAGCAUCA
B17: 91077349_91077469_131_5pUTR_ENSMUSG00000035232_ENSMUST00000045748|mouse|control|control (ssRNA)
RNA: GGGAGUUCUACAGUCCGACGAUCACCGCCGCCUAGCCGCGAGGAGGAGGCGGCGCCGGCGGGGCUUUACCUCUACCUGGGGCUCGGCCUUGGCGCCAGCAGCUGCUCGCCUGCCGCGACACCUACACAAGUACCGGGCAGCAGCAACAGAGGAUUGAGCAUCA
B18: chr10:60895279:60895280:-_ENSMUSG00000020091_ENSMUST00000020288|mus_mus|motif|central (ssRNA)
RNA: GGGAGUUCUACAGUCCGACGAUCACUGGAAGAUGUUUUGUUAAAAAAGUUGUAGUUCAAAAUUGUACUGAAAACUUAUCGGAAAAUAGGUCUGUAGUCAUCUUAAAAAUAAAAGGUCUCUCCUCUGAUAAGGAGAGACUGAUACAACAGAGGAUUGAGCAUCA
B19: 32615364_32616838_524_CDS_ENSMUSG00000022797_ENSMUST00000023486|mouse|control|control (ssRNA)
RNA: GGGAGUUCUACAGUCCGACGAUCCUGCUUGAUGGUGUCAGCAAACUCUAUGGAGUUCAACUUCUCUGACAACAGUGUUUUGAGGUCUGCCCAAUAUAAGCGAGAUGAUGUAGGAACAUCCUCUGUUUCCAUGGUUUCUGACUUCAACAGAGGAUUGAGCAUCA
B20: chrX:71549762:71549763:+_ENSMUSG00000019087_ENSMUST00000019231|mus_mus|mus_mus_mus_hu_False|68_88 (ssRNA)
RNA: GGGAGUUCUACAGUCCGACGAUCAAACCCGUGUACUUCUUAUUGUUACAUCACCCCCACCAGAAAAAAAACAUAACAGCCAAGCAGGACAGACAGUUAAGUAGUACUUCCACACUCCCAAACUCAGGGAGCCCUAUAACCUUACAACAGAGGAUUGAGCAUCA
B21: chr19:56882518:56882519:-_ENSMUSG00000035173_ENSMUST00000118592|mus_hu|FALSE|FALSE (ssRNA)
RNA: GGGAGUUCUACAGUCCGACGAUCCUGAGAAAGCUGCUUAAUUUUGUUAGUGUUUUUCUCAAGUUCCUUAUUUGCAUCUCUAAGUUUUUUCUCAAGUGUCUCUUUUUCCUUUCGAAGAUCUAAAGAUUCCUUCUCACCUCUUACCAACAGAGGAUUGAGCAUCA
B22: chr1:60041781:60041782:+_ENSMUSG00000041040_ENSMUST00000036540|mus_hu|mus_mus_mus_hu_False|28_58 (ssRNA)
RNA: GGGAGUUCUACAGUCCGACGAUCAAGUUUACAAUAGUAAAGUAAAUGCAGUAGUGGCAAAUUUUCUUUUAUUUUCCUUCCUAAAAGAAAAUCUUUAUAACCCAGUCCAAUCCCAGAACAUAGUGAAAGCUAUAAAUUCUGACUCAACAGAGGAUUGAGCAUCA

Target: T1, UNK ZnF1-3 (human, UniProt Q9C0B0 31-174)
T1 sequence: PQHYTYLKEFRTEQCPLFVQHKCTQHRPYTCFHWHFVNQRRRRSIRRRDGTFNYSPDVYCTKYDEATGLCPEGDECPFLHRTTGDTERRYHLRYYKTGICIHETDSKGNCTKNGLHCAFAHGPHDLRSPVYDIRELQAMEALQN
Test: nsRBNS (natural sequence RNA bind-n-seq); RBNS binding buffer (assumed for nsRBNS): 25 mM Tris pH 7.5, 150 mM KCl, 3 mM MgCl2, 0.01% Triton X-100, 500 ug/ml BSA, 20 U/ml SUPERase-In, 4 C; UNK is unkempt and MSI1 is Musashi-1; names of the RNAs are library labels; protein concentration not given here; high values mean tight binding

First: B1
Second: B2
The binding signal of the first is lower: 1.11 enrichment R for the first, 1.34 enrichment R for the second.

Going from B3 to B4, the binding signal falls from 1.62 enrichment R to 0.879 enrichment R.

First: B5
Second: B6
The binding signal of the first is higher: 1.74 enrichment R for the first, 1.09 enrichment R for the second.

Compared with B7, B8 is higher in binding signal: 0.613 enrichment R for the first, 0.815 enrichment R for the second.

Compared with B9, B10 is lower in binding signal: 1.32 enrichment R for the first, 0.933 enrichment R for the second.

First: B11
Second: B12
The binding signal of the first is higher: 1.75 enrichment R for the first, 1.26 enrichment R for the second.

Compared with B13, B14 is higher in binding signal: 0.763 enrichment R for the first, 1.12 enrichment R for the second.

First: B15
Second: B16
The binding signal of the first is lower: 1.04 enrichment R for the first, 1.59 enrichment R for the second.

Going from B17 to B18, the binding signal rises from 0.439 enrichment R to 0.797 enrichment R.

First: B19
Second: B20
The binding signal of the first is lower: 0.522 enrichment R for the first, 2.15 enrichment R for the second.

First: B21
Second: B22
The binding signal of the first is lower: 0.419 enrichment R for the first, 0.59 enrichment R for the second.
